Source: PubChem BioAssay AID624202 (National Center for Advancing Translational Sciences (NCATS), 2012)
About 4,000 (1.1%) of roughly 380,000 compounds were called active. The inconclusive results got no clear call from the source; some entries with a clear call stand among them for comparison. Calls come from the whole dose curve; as a rule, active = well fitted activation curve with a large enough effect; inconclusive = small, poorly fitted or top-dose-only effect; inactive = no such curve, though single readings can be large or run the other way. Potencies of inconclusive entries are doubtful fits and often do not repeat.
Potency is the fitted concentration of half-maximal effect; tags give direction and shape of the fitted curve.

Test: qHTS Assay to Identify Small Molecule Activators of BRCA1 Expression; note: nearly all actives have a fitted effect of over 80% in size
Conditions: MCF7-BRCA1-FFLuc reporter, luminescence, 48 h; activation: at 46.1 µM (top of the series), scaled: vehicle 0%, 10 µM genistein 100% unless noted
Procedure, shortened: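 MCF7-BRCA1-FFLuc, 2000 cells/well; 2 h attach, 37 °C/5% CO2; compound 48 h; luciferase substrate 15 min; luminescence end-point. Norm. to genistein 10 microM max activation and DMSO; concentration-response curves fitted.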
In the case of Clc1ccc2nc(-c3ccccn3)c(Nc3ccc4c(c3)OCO4)n2c1, the “activation” value is reported as inactive: -0.0843%. For CCCCOC(=O)NC1CCc2cc(OC)c(OC)c(OC)c2-c2ccc(SC)c(=O)cc21 (stereo not drawn), the activation was inconclusive: -112% [activator]. With CCS(=O)(=O)N1Cc2ccccc2CC1C(=O)Nc1cccc(C)c1 (stereo not drawn) the Potency was active: 5.01 µM. With CCOc1cc(/C=N/NC(=O)Nc2ccccc2)ccc1O the Potency was active: 11.2 µM. With O=C1/C(=C/Nc2cccc([N+](=O)[O-])c2)CCc2ccccc21 the Potency was inconclusive: 1.26 µM [activator, partial curve, poor fit]. In the case of O=C(NCc1ccccn1)Nc1ccc(Cl)c(Cl)c1, the Potency is reported as inconclusive: 11.2 µM [activator, partial curve, poor fit]. With O=[N+]([O-])c1cccnc1Sc1n[nH]c(-c2ccc(Cl)cc2)n1 the Potency was inconclusive: 14.1 µM [activator, partial curve, poor fit]. With Clc1ccccc1-c1nnc(-c2ccc3c(c2)OCO3)o1 the Potency was inconclusive: 0.631 µM [activator, full curve, poor fit]. In the case of COc1ccc(Cn2c(C3CC3)nc3ccc(NC(=O)C4CC4)cc3c2=O)cc1, the Potency is reported as inconclusive: 0.631 µM [activator, full curve, poor fit]. With Cc1nc2ccc(-c3nc4ccccc4[nH]3)cc2[nH]1 the Potency was inconclusive: 1.58 µM [activator, partial curve, poor fit]. With CC(C)(C)NC(=O)C(c1c[nH]c2ccccc12)N(C(=O)Cn1nnc(-c2ccc(Cl)cc2)n1)c1ccccc1F (stereo not drawn) the “activation” value was inactive: -56.3%. For Cc1ccc(-c2n[nH]c(=O)c3ccccc23)cc1S(N)(=O)=O, the “activation” value was inactive: 2.48%. With COc1cc(OC)cc(C(=O)NC(=S)Nc2cc3oc4ccccc4c3cc2OC)c1 the “activation” value was inactive: -17.4%. For CN1CCN(c2ccc(NC(=O)c3ccccc3)cc2)CC1, the Potency was inconclusive: 2 µM [activator, partial curve, poor fit]. For CC(=O)Oc1ccc(-c2csc(Nc3ccccn3)n2)cc1, the Potency was inconclusive: 0.501 µM [activator, full curve, poor fit]. For CSCCC(NS(=O)(=O)c1ccccc1)C(=O)Nc1nccs1 (stereo not drawn), the “activation” value was inactive: -6.73%. For O=[N+]([O-])c1ccc(NN=Cc2cccc3ccccc23)cc1, the “activation” value was inactive: -16.3%. With COCCNC(=O)/C(C#N)=C/c1ccc(OCc2ccc(F)cc2)cc1 the Potency was inconclusive: 17.8 µM [activator, single point]. With CCOc1ccc(OCCOc2ncnc3ccccc23)cc1 the Potency was inconclusive: 11.2 µM [activator, partial curve, poor fit]. In the case of COc1cccc(CNC(=O)C(C)n2ccc3cc(S(=O)(=O)N4CCCC4)ccc32)c1 (stereo not drawn), the “activation” value is reported as inactive: -28%. With O=C(Nc1nccs1)c1cc(-c2ccccc2)nc2ccccc12 the “activation” value was inactive: -24%. With CCCn1c(N)c(C(=O)CSc2nnc(Cc3ccccc3)o2)c(=O)n(C)c1=O the “activation” value was inactive: -74.6%. With CSc1ccccc1OCc1cc(C(=O)N2CCCC2c2nonc2C)no1 (stereo not drawn) the Potency was inconclusive: 3.16 µM [activator, partial curve, poor fit]. With N=C1CCCN1CC(=O)c1ccc(Br)cc1 the Potency was inconclusive: 17.8 µM [activator, partial curve, poor fit]. With Cc1ccc(Nc2ncccc2C(N)=O)cc1[N+](=O)[O-] the Potency was active: 5.62 µM. In the case of O=C(Cc1cccs1)N/N=C/C=C\c1ccco1, the “activation” value is reported as inactive: 75.7%. In the case of S=C(NCCCc1ccccc1)NCc1ccccc1, the Potency is reported as inconclusive: 8.91 µM [activator, single point]. In the case of O=C(c1cc2cc3ccc(Cl)cc3nc2o1)N1CCCCCC1, the Potency is reported as active: 2.24 µM. With Cc1ccc(NC(=O)Nc2ccccc2)cc1[N+](=O)[O-] the Potency was inconclusive: 35.5 µM [activator, single point]. In the case of c1cc(-c2cc3cc(N4CCOCC4)ccc3o2)cs1, the Potency is reported as inconclusive: 0.562 µM [activator, full curve, poor fit]. For O=C(CCOc1ccccc1)N1CCN(S(=O)(=O)c2cccs2)CC1, the “activation” value was inactive: 14.3%. With Cc1nc(Nc2ccccc2)sc1C(=O)c1ccccc1 the Potency was active: 10 µM. With Cc1nnc(NC(=O)c2nc(S(=O)(=O)Cc3ccccc3)ncc2Cl)s1 the “activation” value was inactive: -49%. With CCCOc1cccc(C(=O)Nc2ccc(Br)cc2F)c1 the Potency was inconclusive: 12.6 µM [activator, partial curve, poor fit]. With Cc1ncoc1C(=O)N1CCc2c([nH]c3ccccc23)C1C1CCCCC1 (stereo not drawn) the “activation” value was inactive: 0.415%. In the case of Cc1c2ccccc2nc2c(F)c(N(C)C)c(F)c(F)c12, the Potency is reported as active: 12.6 µM. With CCCSc1nnc(-c2c[nH]c3ccccc23)n1C the Potency was inconclusive: 11.2 µM [activator, partial curve, poor fit]. For Cc1cc(=O)oc2cc(NC(=O)c3c(Cl)cnn3C)ccc12, the Potency was inconclusive: 3.55 µM [activator, partial curve, poor fit]. For CCN(C(=O)c1cc2ccccc2oc1=O)c1ccccc1, the Potency was inconclusive: 12.6 µM [activator, partial curve, poor fit]. For NC(=O)C1CCN(C(=O)c2ccc3nc(N4CCCCC4)sc3c2)CC1, the Potency was inconclusive: 7.94 µM [activator, partial curve, poor fit]. For Cc1ccc(-n2ncc3c(NCCCOC(C)C)ncnc32)c(C)c1, the “activation” value was inactive: -5.51%. In the case of O=C(c1ccc(Cl)cc1)c1cnc2ccccn12, the Potency is reported as inconclusive: 3.16 µM [activator, full curve, poor fit]. In the case of Cc1cc(C)n(-c2ccc(C(=O)Nc3cccc([N+](=O)[O-])c3)cc2)n1, the “activation” value is reported as inactive: -1.23%. With CCOC(=O)CCCc1ccc(/C(C)=N/NC(=S)NC)cc1 the “activation” value was inactive: 25.4%. In the case of COc1cccc(Nc2ccccc2C(=O)O)c1, the Potency is reported as inconclusive: 11.2 µM [activator, partial curve, poor fit]. In the case of CSc1ccc(/C=N/NC(=O)c2cccs2)cc1, the Potency is reported as inconclusive: 0.562 µM [activator, full curve, poor fit]. In the case of Cc1cc(C)c(C#N)c(SCC(=O)Nc2nonc2N)n1, the Potency is reported as inconclusive: 14.1 µM [activator, partial curve, poor fit]. For Fc1ccc(N/N=C/c2cccnc2)c(F)c1, the Potency was active: 5.62 µM.
